Assay results reported in the supplement of paper PMC12217912.
The list shows a part of the results. Sequences were assembled here from the parent chain. Values near 0.05 are background.

B1: TEV protease; numbered along this chain (parent)
chain: MGESLFKGPRDYNPISSSICHLTNESDGHTTSLYGIGFGPFIITNKHLFRRNNGTLVVQSLHGVFKVKDTTTLQQHLVDGRDMIIIRMPKDFPPFPQKLKFREPQREERICLVTTNFQTKSMSSMVSDTSCTFPSGDGIFWKHWIQTKDGQCGSPLVSTRDGFIVGIHSASNFTNTNNYFTSVPKNFMELLTNQEAQQWVSGWRLNADSVLWGGHKVFMVKPEEPFQPVKEATQL

Variants of: B1
Test: raw area under fraction-flipped curve 0-4 h after induction (AUC4h, not background-subtracted), DNA-recorder readout of cleavage of the substrate (dimensionless); higher = more cleavage of the substrate by the protease variant
Details: temperature: 34 °C; time window: 0-4 h after rhamnose induction
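Also: Bxb1 expression induced with 0.2% (w/v) L-rhamnose at OD600 near 0.5, cultures sampled hourly, flipped fraction per protease–substrate barcode pair counted by paired-end Illumina sequencing.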

For D161Q, the “area with substrate ENLCFQS” value was 0.0569, the “area with substrate ENLDFQS” value was 0.0596 and the “area with substrate ENLEFQS” value was 0.0509. For the same variant, the “area with substrate ENLFFQS” value was 0.0537, the “area with substrate ENLHFQS” value was 0.0579 and the “area with substrate ENLIFQS” value was 0.0641. For the same variant, the “area with substrate ENLKFQS” value was 0.0652, the “area with substrate ENLLFQS” value was 0.0667 and the “area with substrate ENLNFQS” value was 0.0552. The “area with substrate ENLRFQS” value was 0.0504 and the “area with substrate ENLWFQS” value was 0.0421.

For F163H, the “area with substrate ENLCFQS” value was 0.08, the “area with substrate ENLDFQS” value was 0.0756 and the “area with substrate ENLEFQS” value was 0.0619. The “area with substrate ENLHFQS” value was 0.0621, the “area with substrate ENLKFQS” value was 0.0733 and the “area with substrate ENLNFQS” value was 0.0743. The “area with substrate ENLPFQS” value was 0.0461, the “area with substrate ENLVFQS” value was 0.0957 and the “area with substrate ENLWFQS” value was 0.0478.

In the case of V165N, the “area with substrate ENLCFQS” value is reported as 0.0486, the “area with substrate ENLDFQS” value is reported as 0.0563 and the “area with substrate ENLFFQS” value is reported as 0.072. For the same variant, the “area with substrate ENLKFQS” value was 0.0335, the “area with substrate ENLLFQS” value was 0.0566 and the “area with substrate ENLMFQS” value was 0.0493. The “area with substrate ENLNFQS” value was 0.0571, the “area with substrate ENLPFQS” value was 0.0344 and the “area with substrate ENLRFQS” value was 0.0502. The “area with substrate ENLTFQS” value was 0.0631.

In the case of H168P, the “area with substrate ENLCFQS” value is reported as 0.0409, the “area with substrate ENLDFQS” value is reported as 0.0552 and the “area with substrate ENLEFQS” value is reported as 0.0613. The “area with substrate ENLFFQS” value was 0.0775, the “area with substrate ENLHFQS” value was 0.0761 and the “area with substrate ENLIFQS” value was 0.053. For the same variant, the “area with substrate ENLLFQS” value was 0.0805 and the “area with substrate ENLSFQS” value was 0.0696.

In the case of T176E, the “area with substrate ENLCFQS” value is reported as 0.0737, the “area with substrate ENLDFQS” value is reported as 0.0669 and the “area with substrate ENLEFQS” value is reported as 0.0796. For the same variant, the “area with substrate ENLFFQS” value was 0.0696, the “area with substrate ENLHFQS” value was 0.0415 and the “area with substrate ENLIFQS” value was 0.0667. The “area with substrate ENLKFQS” value was 0.0717, the “area with substrate ENLLFQS” value was 0.0621 and the “area with substrate ENLNFQS” value was 0.0577. The “area with substrate ENLPFQS” value was 0.0621, the “area with substrate ENLSFQS” value was 0.0721 and the “area with substrate ENLVFQS” value was 0.0645. The “area with substrate ENLWFQS” value was 0.071.

For P184K, the “area with substrate ENLCFQS” value was 0.0643, the “area with substrate ENLDFQS” value was 0.0588 and the “area with substrate ENLEFQS” value was 0.0786. The “area with substrate ENLFFQS” value was 0.0774, the “area with substrate ENLHFQS” value was 0.0838 and the “area with substrate ENLLFQS” value was 0.0576. The “area with substrate ENLMFQS” value was 0.0449, the “area with substrate ENLNFQS” value was 0.0446 and the “area with substrate ENLQFQS” value was 0.0804. The “area with substrate ENLSFQS” value was 0.0562, the “area with substrate ENLVFQS” value was 0.0715 and the “area with substrate ENLWFQS” value was 0.0603.

With F187P the “area with substrate ENLCFQS” value was 0.0715, the “area with substrate ENLDFQS” value was 0.041 and the “area with substrate ENLEFQS” value was 0.0452. The “area with substrate ENLFFQS” value was 0.0462, the “area with substrate ENLHFQS” value was 0.057 and the “area with substrate ENLKFQS” value was 0.0495. For the same variant, the “area with substrate ENLNFQS” value was 0.0556, the “area with substrate ENLRFQS” value was 0.0513 and the “area with substrate ENLSFQS” value was 0.0413. For the same variant, the “area with substrate ENLTFQS” value was 0.0634.

In the case of T192R, the “area with substrate ENLCFQS” value is reported as 0.0759, the “area with substrate ENLDFQS” value is reported as 0.0553 and the “area with substrate ENLEFQS” value is reported as 0.074. The “area with substrate ENLFFQS” value was 0.0742, the “area with substrate ENLHFQS” value was 0.0673 and the “area with substrate ENLKFQS” value was 0.0614. For the same variant, the “area with substrate ENLLFQS” value was 0.0665, the “area with substrate ENLMFQS” value was 0.0655 and the “area with substrate ENLNFQS” value was 0.0571. The “area with substrate ENLPFQS” value was 0.0559, the “area with substrate ENLRFQS” value was 0.0622 and the “area with substrate ENLSFQS” value was 0.0594. The “area with substrate ENLWFQS” value was 0.0548.

In the case of V200C, the “area with substrate ENLCFQS” value is reported as 0.0539, the “area with substrate ENLDFQS” value is reported as 0.0756 and the “area with substrate ENLEFQS” value is reported as 0.0682. The “area with substrate ENLFFQS” value was 0.0657, the “area with substrate ENLGFQS” value was 0.0658 and the “area with substrate ENLHFQS” value was 0.0809. For the same variant, the “area with substrate ENLIFQS” value was 0.0684, the “area with substrate ENLKFQS” value was 0.121 and the “area with substrate ENLMFQS” value was 0.0753. The “area with substrate ENLNFQS” value was 0.0472, the “area with substrate ENLPFQS” value was 0.0603 and the “area with substrate ENLRFQS” value was 0.0688. For the same variant, the “area with substrate ENLSFQS” value was 0.0615 and the “area with substrate ENLVFQS” value was 0.0679.

With V200G the “area with substrate ENLCFQS” value was 0.0567, the “area with substrate ENLFFQS” value was 0.066 and the “area with substrate ENLHFQS” value was 0.0611. The “area with substrate ENLKFQS” value was 0.057, the “area with substrate ENLLFQS” value was 0.0489 and the “area with substrate ENLPFQS” value was 0.0607. The “area with substrate ENLQFQS” value was 0.0611, the “area with substrate ENLSFQS” value was 0.0476 and the “area with substrate ENLWFQS” value was 0.0528.

In the case of G202C, the “area with substrate ENLCFQS” value is reported as 0.0642, the “area with substrate ENLDFQS” value is reported as 0.0466 and the “area with substrate ENLEFQS” value is reported as 0.0496. For the same variant, the “area with substrate ENLFFQS” value was 0.0582, the “area with substrate ENLMFQS” value was 0.0785 and the “area with substrate ENLPFQS” value was 0.0477. For the same variant, the “area with substrate ENLQFQS” value was 0.0588.

In the case of D208L, the “area with substrate ENLCFQS” value is reported as 0.043, the “area with substrate ENLDFQS” value is reported as 0.0393 and the “area with substrate ENLEFQS” value is reported as 0.0705. The “area with substrate ENLFFQS” value was 0.0594, the “area with substrate ENLHFQS” value was 0.0697 and the “area with substrate ENLNFQS” value was 0.0582. For the same variant, the “area with substrate ENLPFQS” value was 0.0603, the “area with substrate ENLQFQS” value was 0.0652 and the “area with substrate ENLRFQS” value was 0.0645. For the same variant, the “area with substrate ENLSFQS” value was 0.0523.

With V210Y the “area with substrate ENLCFQS” value was 0.065, the “area with substrate ENLDFQS” value was 0.0872 and the “area with substrate ENLEFQS” value was 0.0487. For the same variant, the “area with substrate ENLFFQS” value was 0.074, the “area with substrate ENLHFQS” value was 0.0542 and the “area with substrate ENLKFQS” value was 0.0601. For the same variant, the “area with substrate ENLLFQS” value was 0.0707, the “area with substrate ENLNFQS” value was 0.0623 and the “area with substrate ENLPFQS” value was 0.0554. For the same variant, the “area with substrate ENLQFQS” value was 0.0519, the “area with substrate ENLRFQS” value was 0.0539 and the “area with substrate ENLSFQS” value was 0.0519. The “area with substrate ENLWFQS” value was 0.0566.

With M219A the “area with substrate ENLCFQS” value was 0.068, the “area with substrate ENLDFQS” value was 0.033 and the “area with substrate ENLFFQS” value was 0.0752. For the same variant, the “area with substrate ENLGFQS” value was 0.0646, the “area with substrate ENLHFQS” value was 0.0684 and the “area with substrate ENLKFQS” value was 0.0615. For the same variant, the “area with substrate ENLLFQS” value was 0.0677, the “area with substrate ENLMFQS” value was 0.0631 and the “area with substrate ENLNFQS” value was 0.0729. For the same variant, the “area with substrate ENLPFQS” value was 0.063, the “area with substrate ENLRFQS” value was 0.0591 and the “area with substrate ENLSFQS” value was 0.0677. For the same variant, the “area with substrate ENLTFQS” value was 0.0666, the “area with substrate ENLVFQS” value was 0.0786 and the “area with substrate ENLWFQS” value was 0.0476.

In the case of M219F, the “area with substrate ENLCFQS” value is reported as 0.109, the “area with substrate ENLDFQS” value is reported as 0.066 and the “area with substrate ENLEFQS” value is reported as 0.0695. The “area with substrate ENLFFQS” value was 0.167, the “area with substrate ENLIFQS” value was 0.0862 and the “area with substrate ENLNFQS” value was 0.0791. The “area with substrate ENLPFQS” value was 0.0604, the “area with substrate ENLQFQS” value was 0.0797 and the “area with substrate ENLSFQS” value was 0.0673. For the same variant, the “area with substrate ENLWFQS” value was 0.0875.
